# From publication PMC12136788
# The list shows a part of the results.
# T1: UNK ZnF1-3 (human, UniProt Q9C0B0 31-174)
# T1 sequence: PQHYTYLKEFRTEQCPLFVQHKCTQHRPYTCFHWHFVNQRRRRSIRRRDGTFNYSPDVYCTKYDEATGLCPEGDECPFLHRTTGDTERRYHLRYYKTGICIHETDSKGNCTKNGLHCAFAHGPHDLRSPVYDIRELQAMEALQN
# B1: 46099167_46104026_2383_CDS_ENSG00000136152_ENST00000349995|human|control|control (ssRNA)
# RNA: GGGAGUUCUACAGUCCGACGAUCGGUAUCUUUAUUGGAUAGGUACAAGGACAUACUUCUCAAUGUCACAGGCAGCUUUGUUUUUAUUGUCUUAUAUGCAGUUGCCGCAAGGUCAUUGACCUUUGCUGGUUGUGCCCAAGGCUGCAACAGAGGAUUGAGCAUCA
# B2: chr7:65705475:65705476:+_ENSG00000169902_ENST00000304842|hu_hu|motif|central (ssRNA)
# RNA: GGGAGUUCUACAGUCCGACGAUCUCUAUCCGGUGAUGGCAUUCCAUGGCAUGCUGGCCCAGGUAAAACACAGUCACAGAACGGAUCACCAGACAUGCCAAUAGUAAGUUCUGCUUCAGCUUUCCAACCAUCUUGAUGUGGUUACAACAGAGGAUUGAGCAUCA
# B3: chr10:5838811:5838812:-_ENSG00000057608_ENST00000380191|hu_hu|FALSE|FALSE (ssRNA)
# RNA: GGGAGUUCUACAGUCCGACGAUCAACAUUCCAGUCUCUUCCUCUCCCCAUUGACUCGGGUGGUGAUCCUGGUAUUUUAAAUCUUUUGUAUAAAUCUUCCAAUGGUGUUAUAGAUGCACUCUCUCCUCCGUAGUAAGGGUUUCGCAACAGAGGAUUGAGCAUCA
# B4: chr11:77336104:77336105:-_ENSG00000074201_ENST00000525064|hu_mus|hu_hu_hu_mus_False|28_28 (ssRNA)
# RNA: GGGAGUUCUACAGUCCGACGAUCCUCACACAUUGCUGUGAACAUCGCCUCCAAUGCUGACUUAUCACUGGGCACAAAUCGAAAUUCAGAAAUGGGUUCAACAUCAUCAUCACUGUCCUCAUCUUCAUCAGAGAGAGGUUCUUUCAACAGAGGAUUGAGCAUCA
# B5: chr20:47733735:47733736:-_ENSG00000124214_ENST00000360426|hu_mus|FALSE|FALSE (ssRNA)
# RNA: GGGAGUUCUACAGUCCGACGAUCCACAUCCUUGCCGAUGCCAUGACUGACGAGAGGCGGCUGUGAGGAGCAGUUGAUGAGAGAUACACACUCGUUCUUGUUGUUCUUGGGAAAAUCUUUGUAUUCAACCUGGAAUCCCUGGGCCAACAGAGGAUUGAGCAUCA
# B6: 126051128_126052083_3317_CDS_ENSG00000164961_ENST00000318410|human|control|control (ssRNA)
# RNA: GGGAGUUCUACAGUCCGACGAUCAAGUGUGUUAUCUUCUUUGGGGUAAGGAAGUGAAGGGUCCUGAUAGUGGGCUUCAAUGUCUGCUAGGAGAGCCUUAUUGAGAUUCUCCAGAGCAGCUGCCAGAUGUUUAGAAUCAAACCGCAACAGAGGAUUGAGCAUCA
# B7: chr10:98487791:98487792:+_ENSMUSG00000019943_ENSMUST00000020107|mus_hu|motif|central (ssRNA)
# RNA: GGGAGUUCUACAGUCCGACGAUCUCAUGCAGCACAUUAAUGGCAAAACCAAGACUAGAAACCAGGUCUUGACUCCGGGUCGGAUAUGCUUUCCAGCAUAUCAUGCUACCUCUUUUUUACAGUAUGAUUCACUAUAAAUACCUGCAACAGAGGAUUGAGCAUCA
# B8: chr17:79190952:79190953:-_ENSMUSG00000039414_ENSMUST00000097281|mus_mus|motif|central (ssRNA)
# RNA: GGGAGUUCUACAGUCCGACGAUCGCUAUGAUCAGUUGCAGCCAUGAAUGCCAUUCGAAUCAGGUCAGAGAGAUGCAAUACGGGGAGGUCAUUUUUUGGGUUUCGUAGUUUAGCAGACCGUGCCAAGGCAAGGUCGAAGUGAGCCAACAGAGGAUUGAGCAUCA
# B9: chr17:64801638:64801639:+_ENSG00000154229_ENST00000413366|hu_mus|hu_hu_hu_mus_False|38_68 (ssRNA)
# RNA: GGGAGUUCUACAGUCCGACGAUCUAUAUAUAUAUAUACAUAUGUACACAUAUAUAGUAAAACCCUAAUCUAUCACGUAAAGUAGCCAUUCAUUUUUGAAAUUUUAUCUACAUUAAAAAAUUAAUAUAUCUGAUAGAGUGCCAGCAACAGAGGAUUGAGCAUCA
# B10: chr12:56598494:56598495:-_ENSG00000181852_ENST00000345093|hu_mus|FALSE|FALSE (ssRNA)
# RNA: GGGAGUUCUACAGUCCGACGAUCCAGAGUGAGCUUGGGCAAGGCAGGCAGGCACAAAGAGGAACAAGAAACCCAGUAACCCGACUGAGUAUAGCAGCCUUUUUCAAACUCCUGAGCACAAUGUCCUGGAGCUGGAACACCCAACAACAGAGGAUUGAGCAUCA
# B11: chr16:2814526:2814527:+_ENSG00000167978_ENST00000301740|hu_hu|motif|central (ssRNA)
# RNA: GGGAGUUCUACAGUCCGACGAUCCUCAGAAGAAAAUCCAGUAUUCAUUUCUGUACCAAGUGGGCCUGAGUUUCUAAAUUCGGAAGGUGAUCCAAAGCUGUUCUCCCUGAGUGGGGAGUUAGACAGUUCUUUAUGUUCUGGAGACAACAGAGGAUUGAGCAUCA
# B12: 90591247_90591594_633_CDS_ENSMUSG00000008200_ENSMUST00000013759|mouse|control|control (ssRNA)
# RNA: GGGAGUUCUACAGUCCGACGAUCUAUCUCCGCUAGGAAGUUGGCCAGUGUGCUGUCAAUGUCAGUGGCCUGGUUUCCGUUGGCCUCUUUGGAUUGGGCUGUUUUCUCAGACACAUCACUCUCAUCGUCAUCGCUGUCAGCAUACAACAGAGGAUUGAGCAUCA
# B13: chr6:50807893:50807894:+_ENSG00000008196_ENST00000393655|hu_hu|FALSE|FALSE (ssRNA)
# RNA: GGGAGUUCUACAGUCCGACGAUCCUCAGAGACGGCUUUGGCGGGAAACUCCGUUUCGCAAAUGUACCCAAAAUCCCUAGCUAAGUGAACAGCUUCUCCUUCCACCAGGGAGGUGAGUAACGUGACAUUUGCUGCUUUGCGCCUCAACAGAGGAUUGAGCAUCA
# B14: chr3:89559821:89559822:-_ENSMUSG00000027950_ENSMUST00000029562|mus_mus|motif|central (ssRNA)
# RNA: GGGAGUUCUACAGUCCGACGAUCCCCAGCACAGCCCUGCCUACCUUUAUUCCCACAGUGUAAAUGCUGGGAGCAGGUUCGGAGAUGGGCGCUGUUUGCCUGAUAUGUUCAACAGGAUACGGAAAGGAGCUGGACAAACUGUUCCAACAGAGGAUUGAGCAUCA
# B15: chr1:66463027:66463028:+_ENSMUSG00000015222_ENSMUST00000114013|mus_mus|mus_mus_mus_hu_True|18_38 (ssRNA)
# RNA: GGGAGUUCUACAGUCCGACGAUCUUUUCUUUCAGGAGUGGAAAUUCUGCCUCUCCCGGUUUUAAAAGGCUUUUCUUUUCUAUGUUUCUCAAGAGAUGGUCUCCGAGCUUCCUUUUCAGCUCUCUCCUCUUUAGGAAUAGUUUCCAACAGAGGAUUGAGCAUCA
# B16: 136505900_136511780_517_3pUTR_ENSG00000144224_ENST00000272638|human|control|control (ssRNA)
# RNA: GGGAGUUCUACAGUCCGACGAUCGGAAUUCCACUGUCUCCAAUAAAGAAACUGGAUGGAACACACACUACAGGAUAGAUUUGUGAAAACUGUAGGCAGGCUUCACUUUUGGUAUCGAUUUUAAUAGCAACAAAACUGUUUGAACAACAGAGGAUUGAGCAUCA
# B17: chr18:33362079:33362080:-_ENSMUSG00000024378_ENSMUST00000025236|mus_hu|FALSE|FALSE (ssRNA)
# RNA: GGGAGUUCUACAGUCCGACGAUCAUUUCAUGUCUUGUUUAGCAUGUAUUUCAGGGCUCACUUUACCCAUAUUAACAACAACAAAACAGUAGACACAGGAAUACUAACACAUAAACAACUAACAUUAAACACGGAAAUGGAUUUCAACAGAGGAUUGAGCAUCA
# B18: chr8:108204030:108204031:+_ENSMUSG00000005698_ENSMUST00000005841|mus_hu|motif|central (ssRNA)
# RNA: GGGAGUUCUACAGUCCGACGAUCCUUCUUGGCGGGUGGUGGGGCUGGGGUCACAGGCUGAGGCUCUGGCUCAGGUUCAAUUUCGGCGGCAGGCUCCUCCUCAUCCUCAUUGUCGUCCAGAUCUGGUUCAGCAUUUUCACUGUCCAACAGAGGAUUGAGCAUCA
# B19: chr7:44244176:44244177:+_ENSG00000106636_ENST00000223369|hu_mus|hu_hu_hu_mus_False|1_108 (ssRNA)
# RNA: GGGAGUUCUACAGUCCGACGAUCACUAUCAUUCCGGACGUAGACAUGGCAAAGAUACUCUUGUUCUUUGACAGAAGCUCUGCUGCCUUUCCCCGAGCGUUCCACAAUCAGUUGACUUGUAAAGGUCAUGAAUUCCUGAACGCUCAACAGAGGAUUGAGCAUCA
# B20: chr5:23655024:23655025:+_ENSMUSG00000028986_ENSMUST00000030841|mus_mus|FALSE|FALSE (ssRNA)
# RNA: GGGAGUUCUACAGUCCGACGAUCAUUGUAGCAAUCCAUUCGCUUUAUGGGGAAAAGCUGAGAACCUCCCAAAAUGUAUACUACAUUGUCCCAAAACACACAUGCUGCAUCUCUUCGUUUUUCAAAGGGGCAGCGAAUGUCUGUCAACAGAGGAUUGAGCAUCA
# B21: chr19:16212804:16212805:+_ENSG00000167460_ENST00000300933|hu_mus|hu_hu_hu_mus_False|48_98 (ssRNA)
# RNA: GGGAGUUCUACAGUCCGACGAUCAACAAUUCUGGAGAAGAACAUCAAUGUAACAUGGAACAGCAUUAAAGCUCAGUCAGAAGGCACGUGGGUAAUUAUGAUCACCCCAGCAUUCUCGCUUGGAAUGCUUAAAGACAAUCUGUUCAACAGAGGAUUGAGCAUCA
# B22: chr7:135832278:135832279:+_ENSMUSG00000042105_ENSMUST00000118605|mus_mus|motif|central (ssRNA)
# RNA: GGGAGUUCUACAGUCCGACGAUCCUGCUGCCCUAAUCAUUUUUGUUUUCCCGCCACUGUGGCAAACCUUCCUUCCAUACGGUAAAAACAAAAAUUGCCAAAACUACAUGCAGCCCAACCACGGAGACAAUGGUCGCAUAAAAACAACAGAGGAUUGAGCAUCA
# Target: T1, UNK ZnF1-3
# Assay: nsRBNS (natural sequence RNA bind-n-seq); RBNS binding buffer (assumed for nsRBNS): 25 mM Tris pH 7.5, 150 mM KCl, 3 mM MgCl2, 0.01% Triton X-100, 500 ug/ml BSA, 20 U/ml SUPERase-In, 4 C; UNK is unkempt and MSI1 is Musashi-1; names of the RNAs are library labels; protein concentration not given here; high values mean tight binding
row,Binder,binding signal
1,B1,0.713 enrichment R
2,B2,0.297 enrichment R
3,B3,1.1 enrichment R
4,B4,1.13 enrichment R
5,B5,1.36 enrichment R
6,B6,0.741 enrichment R
7,B7,0.45 enrichment R
8,B8,1.11 enrichment R
9,B9,1.26 enrichment R
10,B10,1.48 enrichment R
11,B11,0.942 enrichment R
12,B12,0.706 enrichment R
13,B13,0.753 enrichment R
14,B14,0.847 enrichment R
15,B15,0.347 enrichment R
16,B16,1.44 enrichment R
17,B17,0.858 enrichment R
18,B18,0.667 enrichment R
19,B19,0.559 enrichment R
20,B20,0.832 enrichment R
21,B21,1.18 enrichment R
22,B22,1.46 enrichment R
